Assay results reported in publication PMC8224886.
These are yes or no findings as the source states them, for the method shown. In cells and extracts the contact can be indirect. Some entries that bind do so weakly or less than the wild type.

Protein sequences, listed by entry. Tags and fused reporters are not part of them.
UniProt P40763: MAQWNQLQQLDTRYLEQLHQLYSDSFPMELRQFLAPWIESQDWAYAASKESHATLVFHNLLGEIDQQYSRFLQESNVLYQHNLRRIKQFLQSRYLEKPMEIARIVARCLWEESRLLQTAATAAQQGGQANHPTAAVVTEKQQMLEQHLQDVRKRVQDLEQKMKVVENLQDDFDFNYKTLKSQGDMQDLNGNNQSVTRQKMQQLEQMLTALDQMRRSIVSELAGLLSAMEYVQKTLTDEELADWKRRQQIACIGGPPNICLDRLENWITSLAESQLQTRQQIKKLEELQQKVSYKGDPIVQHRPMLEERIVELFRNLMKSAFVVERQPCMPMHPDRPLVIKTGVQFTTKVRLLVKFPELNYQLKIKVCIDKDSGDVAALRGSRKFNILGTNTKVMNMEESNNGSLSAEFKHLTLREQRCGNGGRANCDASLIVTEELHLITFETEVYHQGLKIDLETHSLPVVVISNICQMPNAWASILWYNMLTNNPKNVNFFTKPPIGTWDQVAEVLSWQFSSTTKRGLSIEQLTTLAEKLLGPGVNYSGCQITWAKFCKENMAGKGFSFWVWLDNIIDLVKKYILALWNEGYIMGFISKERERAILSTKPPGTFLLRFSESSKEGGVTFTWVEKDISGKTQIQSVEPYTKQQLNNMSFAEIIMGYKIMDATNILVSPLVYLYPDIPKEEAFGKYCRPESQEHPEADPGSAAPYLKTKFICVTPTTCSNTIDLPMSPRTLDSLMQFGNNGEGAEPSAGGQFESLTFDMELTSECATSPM
UniProt Q05322: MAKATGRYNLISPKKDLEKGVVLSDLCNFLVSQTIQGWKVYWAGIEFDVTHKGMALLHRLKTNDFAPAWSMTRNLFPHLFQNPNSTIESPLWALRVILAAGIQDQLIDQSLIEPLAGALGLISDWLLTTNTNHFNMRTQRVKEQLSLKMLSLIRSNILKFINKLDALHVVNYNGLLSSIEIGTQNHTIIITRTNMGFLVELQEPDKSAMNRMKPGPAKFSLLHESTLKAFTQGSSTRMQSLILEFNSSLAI
UniProt O00629: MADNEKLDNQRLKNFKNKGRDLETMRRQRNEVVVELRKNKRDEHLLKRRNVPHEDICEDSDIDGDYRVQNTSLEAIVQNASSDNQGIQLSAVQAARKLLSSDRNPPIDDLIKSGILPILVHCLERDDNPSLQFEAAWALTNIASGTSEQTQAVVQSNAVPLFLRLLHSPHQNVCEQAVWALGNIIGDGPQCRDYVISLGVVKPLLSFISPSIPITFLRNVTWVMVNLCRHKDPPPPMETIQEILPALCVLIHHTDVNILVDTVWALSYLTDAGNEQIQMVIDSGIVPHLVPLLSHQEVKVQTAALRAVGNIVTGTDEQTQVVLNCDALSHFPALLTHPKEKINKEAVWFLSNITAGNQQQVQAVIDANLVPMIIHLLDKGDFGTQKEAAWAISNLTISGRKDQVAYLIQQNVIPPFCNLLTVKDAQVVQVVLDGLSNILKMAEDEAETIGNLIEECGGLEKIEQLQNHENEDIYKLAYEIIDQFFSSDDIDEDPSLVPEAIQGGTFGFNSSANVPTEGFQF
UniProt P52294: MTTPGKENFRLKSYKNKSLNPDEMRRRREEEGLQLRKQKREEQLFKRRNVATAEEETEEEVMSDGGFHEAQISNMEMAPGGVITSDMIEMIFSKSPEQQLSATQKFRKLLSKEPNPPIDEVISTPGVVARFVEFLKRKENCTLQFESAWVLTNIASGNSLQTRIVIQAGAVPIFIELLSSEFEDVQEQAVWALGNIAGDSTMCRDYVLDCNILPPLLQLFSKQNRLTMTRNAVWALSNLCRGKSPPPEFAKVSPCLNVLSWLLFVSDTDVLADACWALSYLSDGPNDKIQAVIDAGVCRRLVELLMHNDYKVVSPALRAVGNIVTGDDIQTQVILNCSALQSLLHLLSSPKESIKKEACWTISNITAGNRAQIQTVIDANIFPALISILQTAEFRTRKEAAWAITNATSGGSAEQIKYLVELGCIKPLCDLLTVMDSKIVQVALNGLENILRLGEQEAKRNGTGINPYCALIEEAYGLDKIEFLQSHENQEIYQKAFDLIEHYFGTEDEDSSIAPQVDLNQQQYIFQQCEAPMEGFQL

Experiments:
Experiment in all cases: co-IP
STAT3-mCherry = STAT3-mCherry (UniProt P40763)
[1] = biological target: GFP-VP24 (Ebola virus VP24 fused to GFP) (Ebola virus (EBOV, species Zaire ebolavirus)) (UniProt Q05322)
[2] = biological target: FLAG-tagged karyopherin Kα4 (FLAG-Kα4) (UniProt O00629)
[3] = biological target: FLAG-tagged karyopherin alpha-1 (FLAG-Kα1) (UniProt P52294)

For “FLAG-VP24 (Ebola virus VP24, FLAG-tagged) (from UniProt Q05322 1-251)”, the binding (STAT3-mCherry) was “binds”.
For “FLAG-tagged wild-type STAT3 (FLAG-STAT3 WT) (from UniProt P40763 1-770)”, the binding [1] was “binds”.
“GFP-VP24 (Ebola virus VP24 fused to GFP) (from UniProt Q05322 1-251)” was tested, and the binding [2] was “no binding” and the binding [3] was “binds”.
For “endogenous STAT3 (total STAT3) (from UniProt P40763 1-770)”, the binding [1] was “binds”.
With “pY-STAT3 (tyrosine-phosphorylated STAT3), endogenous (from UniProt P40763 1-770)” the binding [1] was “binds”.
